We go through 25 compounds from paper PMC4336329 (PLoS ONE, 2015).

The campaign covered roughly 310,000 compounds. About 2,200 (0.71%) showed an effect of 50% or more. The effect is printed as a negative number. Some of the results follow.

Chain of human ether-à-go-go-related gene (hERG) potassium channel (Q12809 whole entry, looked up): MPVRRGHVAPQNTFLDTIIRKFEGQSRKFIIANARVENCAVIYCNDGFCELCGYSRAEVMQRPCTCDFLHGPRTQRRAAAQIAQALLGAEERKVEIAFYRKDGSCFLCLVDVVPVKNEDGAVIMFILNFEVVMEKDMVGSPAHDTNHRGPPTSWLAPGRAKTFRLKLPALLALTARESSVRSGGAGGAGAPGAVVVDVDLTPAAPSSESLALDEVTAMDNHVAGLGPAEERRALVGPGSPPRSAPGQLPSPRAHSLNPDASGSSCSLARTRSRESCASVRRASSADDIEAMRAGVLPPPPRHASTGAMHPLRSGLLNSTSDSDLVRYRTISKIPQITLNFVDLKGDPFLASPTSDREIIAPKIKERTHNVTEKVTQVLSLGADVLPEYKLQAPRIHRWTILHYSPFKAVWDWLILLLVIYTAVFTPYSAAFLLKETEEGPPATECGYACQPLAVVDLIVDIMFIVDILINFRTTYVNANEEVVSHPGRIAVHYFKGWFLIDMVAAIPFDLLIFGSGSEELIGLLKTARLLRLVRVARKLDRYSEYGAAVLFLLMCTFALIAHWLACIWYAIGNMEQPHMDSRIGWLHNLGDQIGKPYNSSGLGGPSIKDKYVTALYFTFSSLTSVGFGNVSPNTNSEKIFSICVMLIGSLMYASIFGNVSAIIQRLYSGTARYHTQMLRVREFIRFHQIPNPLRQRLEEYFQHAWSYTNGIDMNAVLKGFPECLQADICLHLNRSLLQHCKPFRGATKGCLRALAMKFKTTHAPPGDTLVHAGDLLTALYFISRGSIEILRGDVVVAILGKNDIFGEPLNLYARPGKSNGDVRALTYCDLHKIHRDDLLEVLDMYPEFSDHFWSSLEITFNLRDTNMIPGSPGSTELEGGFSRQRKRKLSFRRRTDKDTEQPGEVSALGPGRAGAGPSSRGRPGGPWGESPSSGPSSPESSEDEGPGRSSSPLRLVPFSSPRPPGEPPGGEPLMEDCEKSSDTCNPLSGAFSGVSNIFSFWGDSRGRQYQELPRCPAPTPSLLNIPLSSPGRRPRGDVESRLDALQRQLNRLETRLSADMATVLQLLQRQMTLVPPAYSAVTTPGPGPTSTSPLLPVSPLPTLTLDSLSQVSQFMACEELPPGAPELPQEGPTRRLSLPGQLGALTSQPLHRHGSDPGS

This assay has as its target human ether-à-go-go-related gene (hERG) potassium channel (human, UniProt Q12809). The experiment in a line: primary screen, population patch clamp on CHO cells stably expressing hERG.
As for `CC(C)n1cc(NC(=O)C2CC(c3cccc(Br)c3)=NO2)cn1` (stereo not shown), the “hERG current change (%, negative = inhibition) at 1uM” value came to 8.93%.

With `Cc1ccc(-n2c(C)cc(C(=O)CN3CCCCC3)c2C)cc1`, the “hERG current change (%, negative = inhibition) at 1uM” value is given as -5.25%.

For the compound `CC(OC(=O)C1CC(=O)N(Cc2ccccc2)C1)C(=O)Nc1ccc(F)cc1Cl` (stereo not shown), the “hERG current change (%, negative = inhibition) at 1uM” value is -4.14%.

Turning to `COc1ccc(NC(=O)/C=N/O)cc1`, the “hERG current change (%, negative = inhibition) at 1uM” value was 16.2%.

`O=C(Nc1cccc([N+](=O)[O-])c1)c1ccc2ccccc2c1O`: the “hERG current change (%, negative = inhibition) at 1uM” value is 14%.

Turning to `COc1ccc(NC(=O)c2c(-c3ccccc3Cl)noc2C)c(OC)c1`, the “hERG current change (%, negative = inhibition) at 1uM” value is listed as 12.4%.

As to `CN(C)S(=O)(=O)c1cccc(NC(=O)COc2cccc(C#N)c2)c1`, the “hERG current change (%, negative = inhibition) at 1uM” value is -2.24%.

Regarding `Cc1ccc(N2CCN(CCc3nc4cc(NS(C)(=O)=O)ccc4n3C)CC2)cc1`, the “hERG current change (%, negative = inhibition) at 1uM” value was -35.3%.

As to `O=C(O)CN1C(=O)C2(OCCCO2)c2ccccc21`, the “hERG current change (%, negative = inhibition) at 1uM” value turned out to be 12.1%.

Turning to `CCCCNC(=O)c1ccccc1SCc1c(C)noc1C`, the “hERG current change (%, negative = inhibition) at 1uM” value is 1.96%.

In the case of `CCc1cc(C(=O)N2CCOCC2)c(NC2=NS(=O)(=O)c3ccccc32)s1`, the “hERG current change (%, negative = inhibition) at 1uM” value is recorded as -1.74%.

In the case of `Cc1cc(-c2nc3ccccc3o2)c2ccccc2n1`, the “hERG current change (%, negative = inhibition) at 1uM” value amounted to 1.65%.

As to `CN(CC(=O)Nc1ccc2c(c1)OCO2)S(=O)(=O)c1ccc(F)cc1`, the “hERG current change (%, negative = inhibition) at 1uM” value was 9.89%.

As for `O=C(Cc1cccs1)Nc1cccc(-c2nc3ccccc3o2)c1`, the “hERG current change (%, negative = inhibition) at 1uM” value is reported as 11.4%.

As to `CCOC(=O)CNC(=O)OC1CCN2Cc3ccccc3N=C12.Cl` (stereo not shown), the “hERG current change (%, negative = inhibition) at 1uM” value came to 11.6%.

On to `Cc1ccccc1CN1CCN(S(C)(=O)=O)CC1`, for which the “hERG current change (%, negative = inhibition) at 1uM” value is -2.32%.

Consider `CCCCc1nnc(NC(=O)CN2C(=O)NC3(CCCCC3)C2=O)s1`, for which the “hERG current change (%, negative = inhibition) at 1uM” value was found to be 12%.

In the case of `CCCCC/C(=N\NC(=O)Nc1ccccc1)c1ccccc1`, the “hERG current change (%, negative = inhibition) at 1uM” value came to 2.06%.

On to `CCOc1cccc(CN2CCN(CCCc3ccccc3)C(CCO)C2)c1O` (stereo not shown), for which the “hERG current change (%, negative = inhibition) at 1uM” value was -54.7%.

`CCC(C)[C@H](NC(=O)c1cc2cc(Cl)ccc2n1C)C(=O)N1CCC(C(=O)O)CC1` (stereo partly shown): the “hERG current change (%, negative = inhibition) at 1uM” value amounted to 16.4%.

Take `CC1CCC(C#N)(N(C)C(=O)CSc2nnc(C3CC3)n2C2CC2)CC1` (stereo not shown): the “hERG current change (%, negative = inhibition) at 1uM” value is reported as 3.75%.

As to `CCOc1ccc(C(CC(=O)O)NC(=O)C23CC4CC(CC(C4)C2)C3)cc1` (stereo not shown), the “hERG current change (%, negative = inhibition) at 1uM” value is 2.99%.

`COCC(C)n1c(COc2ccccc2F)nnc1SCC(=O)Nc1oc(C)c2c(C)n[nH]c(=O)c12` (stereo not shown): the “hERG current change (%, negative = inhibition) at 1uM” value is given as 11%.

For `CC1CCc2nc3ccc(S(=O)(=O)N4CCC(C(=O)NCc5ccccc5Cl)CC4)cc3c(C(=O)O)c2C1` (stereo not shown), the “hERG current change (%, negative = inhibition) at 1uM” value worked out at 10.3%.

For the compound `COc1cc(/C=N/NC(N)=O)cc([N+](=O)[O-])c1O`, the “hERG current change (%, negative = inhibition) at 1uM” value was 6.78%.
